Over roughly 33,000 sequences, “E-score (-0.5 to 0.5)” has its median near -0.013; the highest 2% begin near 0.3. The list shows a part of the results.
These sequences were tested against T1, Msn1 (UniProt P22148) (assay: PBM E-score (8-mer binding enrichment) (E-score (-0.5 to 0.5)); higher = stronger / more preferred TF binding; most listed sequences are background and not binding sites). Details: protein concentration: 200 nM; construct: GST-full length.
T1 sequence: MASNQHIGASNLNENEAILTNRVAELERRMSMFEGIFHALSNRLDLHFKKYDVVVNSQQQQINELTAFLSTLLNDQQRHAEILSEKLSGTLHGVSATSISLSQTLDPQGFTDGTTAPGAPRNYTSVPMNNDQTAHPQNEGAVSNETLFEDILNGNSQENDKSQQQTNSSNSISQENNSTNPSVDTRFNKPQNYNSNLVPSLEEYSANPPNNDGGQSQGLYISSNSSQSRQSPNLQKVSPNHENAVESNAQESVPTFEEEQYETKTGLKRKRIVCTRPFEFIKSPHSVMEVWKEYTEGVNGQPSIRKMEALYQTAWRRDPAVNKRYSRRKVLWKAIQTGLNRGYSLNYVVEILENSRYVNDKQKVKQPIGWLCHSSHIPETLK
In short: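 Each ungapped eight-base word and its reverse complement, pooled, received an E-score from the Universal PBM Analysis Suite. Underlying scans, normalised with masliner, recorded fluorescent anti-GST bound to GST-tagged yeast transcription factors. These were applied at about 100-200 nM to universal all-10-mer Agilent arrays double-stranded by primer extension.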

| Sequence | PBM E-score |
| --- | --- |
| TACAAAGA | 0.208 |
| ACCGATAG | 0.0834 |
| AGCAATCC | -0.175 |
| GGGACACC | 0.185 |
| ACGTTGTA | 0.101 |
| CAAGTGCC | -0.15 |
| ACTGGGCG | -0.201 |
| ACGGTGCA | -0.156 |
| CTCGGGAC | 0.198 |
| TACTGTGA | 0.237 |
| AACTGAAG | 0.0752 |
| AGACAGTC | 0.0234 |
| GCAATGGC | -0.287 |
| TCAAGGCA | -0.27 |
| CCTCGGAG | 0.113 |
| AGCCAGAA | -0.0454 |
| AGGTCCAA | -0.00743 |
| CAGGATAA | -0.0283 |
| AACGGATT | 0.265 |
| CAATATTC | 0.186 |
| CTCATTTA | -0.035 |
| ATGCGGGG | -0.104 |
| CCAGGAAC | -0.148 |
| GGTAAATA | 0.0196 |
| CCAATTCA | 0.0106 |

| Sequence | PBM E-score |
| --- | --- |
| CTTAAGTA | 0.118 |
| AGTTACCA | 0.06 |
| CATGTGCA | -0.29 |
| AGCATGGC | -0.142 |
| ACGGAGGG | -0.229 |
| CCTGTACA | 0.224 |
| GCGGGATA | 0.0848 |
| AGGAGACG | -0.298 |
| CGCAAGAC | 0.0173 |
| ATACATAA | 0.21 |
| GCCATATA | -0.00728 |
| CCACACAG | -0.00645 |
| AACGATGT | 0.249 |
| CAGGCATG | -0.0363 |
| AGCGATCC | -0.101 |
| AGCTCCCT | -0.246 |
| GCTCTGGA | 0.0294 |
| CAGCGACG | -0.102 |
| GCTAGACC | -0.208 |
| ATGCAGGA | -0.0548 |
| GTTACGTA | -0.133 |
| CATAGAAA | 0.201 |
| ATAACCAG | 0.0452 |
| ATCGCCAG | -0.0614 |
| AATGAGAT | 0.119 |

| Sequence | PBM E-score |
| --- | --- |
| AAGCGTAG | -0.153 |
| CCAAAGAC | 0.242 |
| ACACAAGT | 0.221 |
| TAAGTCCA | 0.26 |
| GACGCCCC | -0.306 |
| CCAGATGC | -0.0269 |
| ATTCTCTA | 0.0164 |
| ATATCAGA | 0.16 |
| TCCTCCGA | -0.071 |
| GTAGATAA | 0.0986 |
| TCGCCGAA | 0.099 |
| CGTGTTTC | 0.0244 |
| TCGCTCCA | -0.031 |
| GCACAACA | 0.0085 |
| AAGCTATG | -0.0916 |
| GGTCGCTA | -0.0983 |
| AGGACGCA | 0.173 |
| CCCCGCGG | -0.217 |
| ACCACTGC | -0.19 |
| AAGAGCAG | -0.176 |
| GATCGTCA | -0.148 |
| GGTTTATA | 0.0948 |
| ACTCGGAT | 0.112 |
| GACTTCAA | -0.0472 |
| AGCCCGAA | 0.0451 |

| Sequence | PBM E-score |
| --- | --- |
| CAAGTCGA | 0.0241 |
| CGCACGAA | 0.0398 |
| AGAGAACT | -0.00154 |
| CCGGTGTC | 0.09 |
| ACTTGGTG | -0.224 |
| ACAGCGTG | 0.0507 |
| CACGTGAC | 0.225 |
| CAATTAGA | 0.00628 |
| GCTTTTGA | -0.0979 |
| CATCATGG | -0.077 |
| CTCTTCAC | -0.111 |
| CCATCGGC | -0.137 |
| AATAATCA | 0.0492 |
| AGCTCCAG | -0.0975 |
| CATTTTAA | 0.214 |
| CCGCGATA | -0.0107 |
| GCCGGTTA | -0.0801 |
| GCACGAGA | -0.0704 |
| AATCGCTC | -0.222 |
| CCGGTAGA | -0.125 |
| ACCTATAT | 0.279 |
| TACGACCA | -0.025 |
| AGAGCACA | -0.147 |
| AAGTTATG | 0.2 |
| ATCTACGA | -0.116 |

| Sequence | PBM E-score |
| --- | --- |
| ACGTGAGT | -0.174 |
| ACTGGGAA | -0.0174 |
| GAAGTATC | -0.00239 |
| CAACCAGG | -0.0341 |
| ATTTAGCG | 0.0228 |
| ACCACAAC | 0.0827 |
| GACTGCTA | -0.183 |
| CCGCCCAG | -0.21 |
| ACTGCATA | 0.171 |
| CTCGGGCC | -0.0837 |
| CAATGGAC | 0.226 |
| ACTTAACT | 0.015 |
| CTGGGCTC | -0.203 |
| GAGCGAAA | 0.139 |
| CGAGTCCA | -0.108 |
| CCCAGACC | -0.348 |
| GTGAGCGA | -0.0614 |
| AGGCTGAA | -0.023 |
| AAGGGTGA | -0.11 |
| CCGTCTCC | -0.113 |
| CAGGAGCG | -0.0172 |
| GACCGTGC | -0.219 |
| ACTCGTAT | 0.0597 |
| AGAGACCC | 0.00402 |
| CACACTAA | 0.0839 |

| Sequence | PBM E-score |
| --- | --- |
| AAGTACGA | 0.133 |
| GGGACGGA | -0.287 |
| CAGGCATA | -0.184 |
| GATAGCAC | -0.209 |
| GACTGCTC | -0.0933 |
| GAAGCCGC | -0.0756 |
| CGGAACAG | 0.0524 |
| TCCCACCA | -0.249 |
| GAGTAATC | -0.128 |
| GTAAATCA | 0.125 |
| AAAATGTT | 0.138 |
| GCTGGACC | 0.00581 |
| ATGTATCA | 0.145 |
| AGAATCAG | -0.0144 |
| AGTGCTCC | -0.239 |
| AACCGATT | 0.104 |
| CGAACCAC | -0.0171 |
| AGCGTTTA | -0.0795 |
| TGCCTAAA | 0.0527 |
| CAACGCTG | -0.106 |
| CAGAGTAC | 0.0155 |
| ACGTCTTA | 0.0725 |
| CACGCATA | -4e-05 |
| AGAATCTG | 0.0164 |
| GCTAAAAA | -0.0605 |

| Sequence | PBM E-score |
| --- | --- |
| CCGCGGCC | -0.0313 |
| TAACTAAA | 0.0052 |
| GACGGGCC | -0.195 |
| CGCTGCCG | -0.0744 |
| GCGCCGCA | -0.0142 |
| ATTAGGTA | 0.0699 |
| GCATAGGA | -0.103 |
| ATCTTACC | -0.0804 |
| ATCTCCCA | -0.13 |
| GCGCATAA | 0.00899 |
| ACTAGGTG | -0.201 |
| AGCGCCCA | -0.359 |
| GAAGTGAA | -0.269 |
| GTCCGCTA | 0.104 |
| ATCCGGTC | -0.082 |
| GTCCATAA | 0.231 |
| CCGGTCAG | -0.0661 |
| AATATCCT | 0.0728 |
| GCCTAGCA | -0.205 |
| ACTGCAAC | -0.207 |
| GACATGTA | 0.424 |
| AAATGCCT | 0.139 |

Reference: the supplement of paper PMC3334620
